Target: L1 (DV1-GV4) antigen: soluble heterodimeric γδ TCR in leucine zipper format (TRDV1/TRGV4) (human)
Test: DELFIA affinity ranking with 100 nM biotinylated L1

L1 (DV1-GV4) antigen: soluble heterodimeric γδ TCR in leucine zipper format (TRDV1/TRGV4) (human), sequence (main, as listed by the source): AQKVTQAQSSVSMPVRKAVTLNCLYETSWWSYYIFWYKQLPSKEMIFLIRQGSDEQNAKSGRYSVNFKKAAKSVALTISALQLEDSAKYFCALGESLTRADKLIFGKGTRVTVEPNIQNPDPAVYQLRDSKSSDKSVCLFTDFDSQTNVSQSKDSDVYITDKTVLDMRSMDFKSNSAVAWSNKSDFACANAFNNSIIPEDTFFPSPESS

- DELFIA signal, 100 nM L1: 22500
B1: 1245_P01_G06 (scFv) (scFv)
scFv: QVQLVESGGGLVKPGGSLRLSCAASGFTFSDYYMSWIRQAPGKGLEWVSYISSSGSTIYYADSVKGRFTISRDNAKNSLYLQMNSLRAEDTAVYYCARHSWNDAFDVWGQGTLVTVSSGGGGSGGGGSGGGAS[about 100 residues not printed]

— US20220403025A1
